# Measured values as given in the supplement of paper PMC8728848.
# Some of the results follow.
# B1: rCnSL-A (Clitocybe nebularis) (protein)
# chain: VNPNLPGPNDVFVGFRGTNNIVGAIYEKDGIKDTPLNNGADAEMGPGSYITDGLFTARIFASGSAGNNPGTTATVCKIYASGVQWRGAPKGYIPVAYFGNGPTAEQRRQTYLRTLGLPGTAIRFGNLNTNPGQGPTAPRQMVVPPGPLRSLLKASCFPAADTRLPQTLHYFEKRVDWNIITAADSQTWGH
# Tests used:
# Assay in all cases: glycan array binding signal (z-score within array); higher = stronger binding
# Settings in all cases: glycan notation: IUPAC condensed, linker removed
# [1] = biological target: Neu5Ac(a2-6)Gal(b1-4)GlcNAc(b1-2)Man(a1-3)[Man(a1-6)]Man(b1-4)GlcNAc(b1-4)GlcNAc
# Summary of the method: (§1)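 Arrays were curated from the Consortium for Functional Glycomics database, 3228 in total, and kept only where the protein sequence was available. Binding is expressed as a within-array Z-score. This score was averaged across arrays of the same protein sequence at different concentrations or buffers and across linkers, and negative values can be read as non-binding.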
# [2] = biological target: Neu5Ac(a2-6)Gal(b1-4)GlcNAc(b1-2)Man(a1-3)[Neu5Ac(a2-3)Gal(b1-4)GlcNAc(b1-2)Man(a1-6)]Man(b1-4)GlcNAc(b1-4)GlcNAc
# Summary of the method: as §1
# [3] = biological target: Neu5Ac(a2-6)Gal(b1-4)GlcNAc(b1-2)Man(a1-3)[Neu5Ac(a2-6)Gal(b1-4)GlcNAc(b1-2)Man(a1-6)]Man(b1-4)GlcNAc(b1-4)GlcNAc
# Summary of the method: as §1
# [4] = biological target: Neu5Ac(a2-6)Gal(b1-4)GlcNAc(b1-2)Man(a1-3)[Neu5Ac(a2-6)Gal(b1-4)GlcNAc(b1-2)Man(a1-6)]Man(b1-4)GlcNAc(b1-4)[Fuc(a1-6)]GlcNAc
# Summary of the method: as §1
# [5] = biological target: Neu5Ac(a2-6)Gal(b1-4)GlcNAc(b1-2)Man(a1-6)Man(b1-4)GlcNAc(b1-4)GlcNAc
# Summary of the method: as §1
# [6] = biological target: Neu5Ac(a2-6)Gal(b1-4)GlcNAc(b1-2)Man(a1-6)[Gal(b1-4)GlcNAc(b1-2)Man(a1-3)]Man(b1-4)GlcNAc(b1-4)GlcNAc
# Summary of the method: as §1
# [7] = biological target: Neu5Ac(a2-6)Gal(b1-4)GlcNAc(b1-2)Man(a1-6)[GlcNAc(b1-2)Man(a1-3)]Man(b1-4)GlcNAc(b1-4)GlcNAc
# Summary of the method: as §1
# [8] = biological target: Neu5Ac(a2-6)Gal(b1-4)GlcNAc(b1-2)Man(a1-6)[Man(a1-3)]Man(b1-4)GlcNAc(b1-4)GlcNAc
# Summary of the method: as §1
# [9] = biological target: Neu5Ac(a2-6)Gal(b1-4)GlcNAc(b1-2)[Neu5Ac(a2-6)Gal(b1-4)GlcNAc(b1-4)]Man(a1-3)[GlcNAc(b1-4)][Neu5Ac(a2-6)Gal(b1-4)GlcNAc(b1-2)[Neu5Ac(a2-6)Gal(b1-4)GlcNAc(b1-6)]Man(a1-6)]Man(b1-4)GlcNAc(b1-4)GlcNAc
# Summary of the method: as §1
# [10] = biological target: Neu5Ac(a2-6)Gal(b1-4)GlcNAc(b1-2)[Neu5Ac(a2-6)Gal(b1-4)GlcNAc(b1-4)]Man(a1-3)[GlcNAc(b1-4)][Neu5Ac(a2-6)Gal(b1-4)GlcNAc(b1-4)Man(a1-6)]Man(b1-4)GlcNAc(b1-4)GlcNAc
# Summary of the method: as §1
# [11] = biological target: Neu5Ac(a2-6)Gal(b1-4)GlcNAc(b1-2)[Neu5Ac(a2-6)Gal(b1-4)GlcNAc(b1-6)]Man(a1-6)[Neu5Ac(a2-6)Gal(b1-4)GlcNAc(b1-2)Man(a1-3)][GlcNAc(b1-4)]Man(b1-4)GlcNAc(b1-4)GlcNAc
# Summary of the method: as §1
# [12] = biological target: Neu5Ac(a2-6)Gal(b1-4)GlcNAc(b1-3)Gal(b1-3)GlcNAc
# Summary of the method: as §1
# [13] = biological target: Neu5Ac(a2-6)Gal(b1-4)GlcNAc(b1-3)Gal(b1-4)GlcNAc
# Summary of the method: as §1
# [14] = biological target: Neu5Ac(a2-6)Gal(b1-4)GlcNAc(b1-3)Gal(b1-4)GlcNAc(b1-2)Man(a1-3)[Neu5Ac(a2-6)Gal(b1-4)GlcNAc(b1-3)Gal(b1-4)GlcNAc(b1-2)Man(a1-6)]GalNAc
# Summary of the method: as §1
# [15] = biological target: Neu5Ac(a2-6)Gal(b1-4)GlcNAc(b1-3)Gal(b1-4)GlcNAc(b1-3)Gal(b1-4)GlcNAc
# Summary of the method: as §1
# [16] = biological target: Neu5Ac(a2-6)Gal(b1-4)GlcNAc(b1-3)Gal(b1-4)GlcNAc(b1-3)Gal(b1-4)GlcNAc(b1-2)Man(a1-3)[Neu5Ac(a2-6)Gal(b1-4)GlcNAc(b1-3)Gal(b1-4)GlcNAc(b1-3)Gal(b1-4)GlcNAc(b1-2)Man(a1-6)]GalNAc
# Summary of the method: as §1
# [17] = biological target: Neu5Ac(a2-6)Gal(b1-4)GlcNAc(b1-3)Gal(b1-4)GlcNAc(b1-3)GalNAc
# Summary of the method: as §1
# [18] = biological target: Neu5Ac(a2-6)Gal(b1-4)GlcNAc(b1-3)Gal(b1-4)GlcNAc(b1-3)[Neu5Ac(a2-6)Gal(b1-4)GlcNAc(b1-3)Gal(b1-4)GlcNAc(b1-6)]GalNAc
# Summary of the method: as §1
# [19] = biological target: Neu5Ac(a2-6)Gal(b1-4)GlcNAc(b1-3)Gal(b1-4)GlcNAc(b1-6)[Gal(b1-3)]GalNAc
# Summary of the method: as §1
# [20] = biological target: Neu5Ac(a2-6)Gal(b1-4)GlcNAc(b1-3)Gal(b1-4)[Fuc(a1-3)]GlcNAc(b1-3)Gal(b1-4)[Fuc(a1-3)]GlcNAc
# Summary of the method: as §1
# [21] = biological target: Neu5Ac(a2-6)Gal(b1-4)GlcNAc(b1-3)GalNAc
# Summary of the method: as §1
# [22] = biological target: Neu5Ac(a2-6)Gal(b1-4)GlcNAc(b1-3)[Neu5Ac(a2-6)Gal(b1-4)GlcNAc(b1-6)]GalNAc
# Summary of the method: as §1
# [23] = biological target: Neu5Ac(a2-6)Gal(b1-4)GlcNAc(b1-6)GalNAc
# Summary of the method: as §1
# [24] = biological target: Neu5Ac(a2-6)Gal(b1-4)GlcNAc(b1-6)[Gal(b1-3)GlcNAc(b1-3)]Gal(b1-4)Glc
# Summary of the method: as §1
# [25] = biological target: Neu5Ac(a2-6)Gal(b1-4)GlcNAc(b1-6)[Gal(b1-3)]GalNAc
# Summary of the method: as §1
# [26] = biological target: Neu5Ac(a2-6)Gal(b1-4)GlcNAc6S
# Summary of the method: as §1
# Neu5Ac(a2-6)GalNAc = biological target: Neu5Ac(a2-6)GalNAc
# Summary of the method: as §1
# [27] = biological target: Neu5Ac(a2-6)GalNAc(b1-4)GlcNAc
# Summary of the method: as §1
# [28] = biological target: Neu5Ac(a2-6)GalNAc(b1-4)GlcNAc6S
# Summary of the method: as §1
# [29] = biological target: Neu5Ac(a2-6)GlcNAc(b1-4)GlcNAc
# Summary of the method: as §1
# [30] = biological target: Neu5Ac(a2-6)GlcNAc(b1-4)GlcNAc(b1-4)GlcNAc
# Summary of the method: as §1
binder,measurement,setting,value
B1,glycan array binding signal (z-score),[1],-0.219
same,glycan array binding signal (z-score),[2],-0.206
same,glycan array binding signal (z-score),[3],-0.176
same,glycan array binding signal (z-score),[4],-0.227
same,glycan array binding signal (z-score),[5],-0.346
same,glycan array binding signal (z-score),[6],-0.231
same,glycan array binding signal (z-score),[7],-0.289
same,glycan array binding signal (z-score),[8],-0.285
same,glycan array binding signal (z-score),[9],-0.193
same,glycan array binding signal (z-score),[10],-0.04
same,glycan array binding signal (z-score),[11],-0.269
same,glycan array binding signal (z-score),[12],-0.095
same,glycan array binding signal (z-score),[13],-0.254
same,glycan array binding signal (z-score),[14],-0.146
same,glycan array binding signal (z-score),[15],-0.13
same,glycan array binding signal (z-score),[16],0.6
same,glycan array binding signal (z-score),[17],-0.201
same,glycan array binding signal (z-score),[18],0.406
same,glycan array binding signal (z-score),[19],-0.204
same,glycan array binding signal (z-score),[20],-0.246
same,glycan array binding signal (z-score),[21],-0.196
same,glycan array binding signal (z-score),[22],-0.219
same,glycan array binding signal (z-score),[23],-0.161
same,glycan array binding signal (z-score),[24],-0.183
same,glycan array binding signal (z-score),[25],-0.241
same,glycan array binding signal (z-score),[26],-0.302
same,glycan array binding signal (z-score),Neu5Ac(a2-6)GalNAc,-0.241
same,glycan array binding signal (z-score),[27],-0.347
same,glycan array binding signal (z-score),[28],-0.252
same,glycan array binding signal (z-score),[29],-0.287
same,glycan array binding signal (z-score),[30],-0.339
